# Test results reported in PubChem BioAssay AID463173 (ICCB-Longwood Screening Facility, Harvard Medical School, 2010).
# The campaign covered roughly 52,000 compounds. About 1,700 (3.3%) were called active. Cut-off read from the data, not from the text of the source: active = survival mostly below about 52% (no sharp cut-off); inactive = mostly above about 56%. The list shows a part of the results.
# Tested on: Wild type
# Test: growth inhibition of S. aureus wild type versus tarO mutant, primary screen, teichoic acid synthesis inhibitors, RN4220, OD600 (AID 463173)
# Settings: S. aureus RN4220 wild type/DeltatarO growth, OD600, 18 h, hits give low values, screened at 18.75 µg/mL (by protocol)
row,SMILES,survival
1,Cn1nnnc1SCCCNCc1ccccc1OCc1ccccc1Cl,inactive: 109%
2,COc1ccc(-c2noc(CSc3nnc(C)n3-c3ccc(OC)cc3)n2)cc1,inactive: 85%
3,COc1ccccc1NC(=O)c1sc2nc(N3CCOCC3)c3c(c2c1N)CC(C)(C)OC3,inactive: 64%
4,Cc1c(Cl)cccc1NC1=NCC(=O)N1C1CCCC1,inactive: 126%
5,Cc1cccc(Cn2c(=O)n(CC3CCC(C(=O)N4CCOCC4)CC3)c(=O)c3sccc32)c1 (stereo not drawn),inactive: 68%
6,COC(=O)/C=C1/N/C(=N/c2nc3ccccc3s2)NC1=O,inactive: 88%
7,O=C(NCc1cccs1)c1ccc(Cn2c(SCc3cccc(F)c3)nc3cccnc32)cc1,inactive: 49%
8,CCCCOC(=O)c1ccc(NC(=O)Cn2nnc3sc4c(c3c2=O)CCCC4)cc1,inactive: 85%
9,CCOC(=O)c1c(NC(=O)c2cc3nc(-c4ccc(OC)cc4)cc(C(F)(F)F)n3n2)sc2c1CCC(C)C2 (stereo not drawn),inactive: 87%
10,CCc1cccc(NC(=O)C(Cc2ccccc2)NS(=O)(=O)c2ccc3c(c2)oc(=O)n3C)c1 (stereo not drawn),inactive: 131%
11,COc1ccccc1-c1nc2c(c(SCC(=O)Nc3c(C)cc(C)cc3C)n1)Cc1c(CO)cnc(C)c1O2,inactive: 85%
12,CCC(=O)N1CCc2cc(S(=O)(=O)CCC(=O)NCc3ccc(C)cc3)ccc21,inactive: 83%
13,CCCN1C2CCCC1CC(NC(=O)c1ccc(F)cc1)C2 (stereo not drawn),inactive: 108%
14,O=C(O)C1Cc2c([nH]c3ccccc23)C(Cc2ccccc2)N1 (stereo not drawn),inactive: 117%
15,CCN1/C(=C2\C(=O)N(c3ccc(Cl)cc3)N=C2C)C=Cc2ccccc21,inactive: 96%
16,CCOc1ccc(-c2cc(C(=O)N3CCN(S(=O)(=O)c4cc(Cl)ccc4OC)CC3)[nH]n2)cc1,inactive: 45%
17,Cc1ccc(N2C(=O)N(CC(=O)C(C)(C)C)c3ccccc3S2(=O)=O)cc1C,inactive: 119%
18,CCc1cccc(NC(=O)c2cc3c(=O)n(Cc4ccc(OC)cc4)ccc3nc2C)c1,inactive: 81%
19,CCCSc1nnc2c(n1)OC(c1sccc1C)Nc1ccccc1-2 (stereo not drawn),inactive: 92%
20,CCOc1ccc(CCNC(=O)c2ccc(Nc3nc4ccccc4n4nnnc34)cc2)cc1OCC,inactive: 148%
21,CS(=O)(=O)n1c(=O)sc2ccccc21,inactive: 121%
22,Cc1c(Cl)cccc1NC(=O)CN1C(=O)COc2ccc(S(=O)(=O)N3CCOCC3)cc21,inactive: 95%

row,SMILES,survival
1,CCOC(=O)c1ccc(NC(=O)c2c(N3CCCC3=O)c3cc(OC)ccc3n2C)cc1,inactive: 83%
2,Cc1ccc(C)c(N2CCN(C(=O)Cn3ncc4ccsc4c3=O)CC2)c1,inactive: 87%
3,Cc1cc2oc(C(=O)N(Cc3ccccc3F)C3CCS(=O)(=O)C3)c(C)c2cc1Cl (stereo not drawn),inactive: 71%
4,CCOc1ccc(C(=O)c2oc3ccccc3c2NC(=O)Cc2coc3cc(C)cc(C)c23)cc1,inactive: 109%
5,CCc1ccc(Cn2c(CNS(=O)(=O)c3ccc(F)c(Cl)c3)nc3cccnc32)cc1,active: -3%
6,CC(=O)N1CCCC1c1nc2ccccc2n1Cc1ccccc1 (stereo not drawn),inactive: 87%
7,Cc1ccc(C2CC(=O)Nc3cc4c(cc32)OCCO4)cc1 (stereo not drawn),inactive: 140%
8,CC1=C(C(=O)OCC2CCCCC2)C(c2cccc(Cl)c2Cl)CC(=O)N1 (stereo not drawn),inactive: 76%
9,OCC1=CC[N+]2(Cc3ccccc3)CCC(O)C12 (stereo not drawn),inactive: 99%
10,Cc1ccc(CNc2ncccc2-c2nc(-c3ccc(Cl)cc3)no2)cc1,inactive: 87%
11,O=C(CCCn1c(=O)c2sccc2n(Cc2ccc(Cl)cc2)c1=O)NCc1ccc2c(c1)OCO2,inactive: 87%
12,COc1ccccc1N1CCN(S(=O)(=O)CCNC(=O)COc2ccccc2F)CC1,inactive: 89%
13,Cc1scc(CN2CCN(c3ccc(F)cc3)CC2)c1C,inactive: 87%
14,COC(=O)c1sccc1S(=O)(=O)N1CCN(c2ccc(Cl)cc2)CC1,inactive: 59%
15,CCOC(=O)c1ccccc1NC(=O)c1cc2c(s1)-c1ccccc1SC2,inactive: 41%
16,CC1=C(c2ccc(Cl)cc2)S(=O)(=O)N=C1N1CCC(C(=O)NCCc2ccco2)CC1,inactive: 55%
17,COc1ccc(Br)cc1CNC(=O)CCc1cn(Cc2ccc(C)cc2)c2ccccc12,inactive: 84%
18,Cc1ccc(-c2nc(S(=O)(=O)c3ccccc3)c(SCC(=O)NC3CCCCC3)o2)cc1,inactive: 73%
19,CC(C)c1ccc(NC(=O)CN2C(=O)CSc3ccc(S(=O)(=O)N4CCCC4)cc32)cc1,inactive: 91%
20,CC(C)CC(NC(=O)C1CCCCC1)C(=O)Nc1cccc(C(F)(F)F)c1 (stereo not drawn),inactive: 64%
21,Cc1ccc(Cl)cc1NC(=O)c1cc(CN2CCCC2)on1,inactive: 78%
22,CCS(=O)(=O)N(CC(=O)Nc1sc(C)c(C)c1C(N)=O)Cc1ccc(F)cc1,inactive: 100%

row,SMILES,survival
1,COc1ccc(CCNC(=O)CCc2cn(Cc3ccc(F)cc3)c3ccccc23)cc1OC,inactive: 104%
2,Cc1ccc(Cl)cc1N1CCN(C(=O)c2nn(C)c3c2CS(=O)(=O)c2ccccc2-3)CC1,inactive: 67%
3,CCc1ccc(NC(=O)c2ccc(NS(=O)(=O)c3c(C)noc3C)cc2)cc1,inactive: 61%
4,Cc1cccc(N2CCN(C(=O)c3cccn3-c3nnc(N4CCCCC4)s3)CC2)c1C,inactive: 68%
5,O=C(NC1CC1)c1ccc(Cn2c(SCc3ccc(F)cc3)nc3cccnc32)cc1,inactive: 73%
6,COc1ccc(-c2cc(C(F)(F)F)nc(SCCC(=O)Nc3cccc(OC)c3)n2)cc1,inactive: 65%
7,CCc1cccc(C)c1NC(=O)c1cc(S(=O)(=O)N2CCCCCC2)cn1C,inactive: 92%
8,CCCNc1ncnc2c1c(-c1ccccc1)cn2-c1ccc(OCC)cc1,inactive: 102%
9,COc1ccc(NC(=O)CCn2c(-c3ccc(F)cc3)cc(C(C)=O)c2C)c(OC)c1,inactive: 135%
10,O=c1cc(CSc2ccccc2)[nH]c2ccc(F)cc12,inactive: 72%
11,O=C(COc1ccc(F)cc1)Nc1ccc(S(=O)(=O)N(Cc2ccccc2)c2ccccc2)cc1,inactive: 115%
12,CCc1ccc(CNC(=O)c2sc3nc[nH]c(=O)c3c2C)cc1,inactive: 105%
13,CCCOc1ccc(C(=O)Nc2ccc(-c3cc4ccccc4oc3=O)c(C)c2)cc1,inactive: 85%
14,CCn1c(NC(C)=O)nc2ccccc21,inactive: 108%
15,COC(=O)CSc1nnc(CNc2ccc(Cl)cc2)n1Cc1ccccc1,inactive: 115%
16,Cc1ccc(NC(=O)c2c(C)oc3ccc(O)c(CN(C)Cc4ccccc4)c23)c(C)c1,inactive: 82%
17,CCc1ccc(Nc2nnc(-c3cc4cc(OC)ccc4oc3=O)s2)cc1,inactive: 138%
18,CCN(C(=O)Cc1c(C(=O)O)c(C)cn1C)c1cccc(Cl)c1,inactive: 72%
19,CCc1c(C)nc(SCc2nc(-c3ccccc3C)no2)[nH]c1=O,inactive: 77%
20,COc1ccc(OC)c(CNc2ncnc3c2nc2n3CCCC2)c1,inactive: 68%
21,CCCn1nnc(NC(=O)Cc2ccccc2)n1,inactive: 107%
22,COc1cc(NC(=O)C(NS(=O)(=O)c2ccc3c(c2)CCCC(=O)N3)C(C)C)cc(OC)c1 (stereo not drawn),inactive: 78%

row,SMILES,survival
1,CCOc1ccc2nc(NCCNC(=O)Nc3cccc(Cl)c3)c(C#N)cc2c1,inactive: 108%
2,Cc1ccc(NC(=O)c2sc3nc(-c4ccncc4)ccc3c2N)cc1,inactive: 157%
3,CCOc1ccc(S(=O)(=O)c2c(C(=O)c3ccc(C)c(C)c3)cnc3ccccc23)cc1,inactive: 80%
4,Cc1ccc(CNC(=O)CCc2nnc3n(C)c(=O)c4sccc4n23)cc1,inactive: 65%
5,CC(=O)Nc1ccc(Nc2c(CCC(C)C)c(C)c(C#N)c3nc4ccccc4n23)cc1,inactive: 142%
6,Cn1ncc(Cl)c1C(=O)NC(=S)Nc1sc2c(c1C#N)CCCC2,inactive: 107%
7,Cc1ccccc1C(=O)Nc1nnc(S(=O)(=O)N(C)c2ccc(Cl)cc2)s1,inactive: 64%
8,Cc1ccccc1Cn1c(=O)n(CCc2ccccc2)c(=O)c2sc3ccccc3c21,inactive: 86%
9,COC(=O)c1sccc1S(=O)(=O)N(CC(=O)Nc1ccc(C)c(F)c1)c1ccc(C)c(C)c1,active: -1%
10,NC1=NC2=C(CCCC2)C2(CCCCC2)S1,inactive: 106%
11,Cc1ccc(-c2nn(C)c(=O)c3ccccc23)cc1S(=O)(=O)NCCCN(C)C,inactive: 71%
12,CC(=O)Nc1ccc(NC(=O)C(c2ccccc2)N2Cc3ccccc3C2=O)cc1 (stereo not drawn),inactive: 123%
13,COC(=O)c1ccc(-c2nc(-c3ccc(OC)c(OC)c3)no2)cc1,inactive: 83%
14,CCc1ccc(C(=O)NC2=NC(c3cc(OC)ccc3OC)CC(=O)N2)cc1 (stereo not drawn),inactive: 98%
15,COc1ccc(-c2cc(C(F)(F)F)n3nc(C(=O)Nc4sc5c(c4C(=O)OC(C)C)CCC(C)C5)cc3n2)cc1 (stereo not drawn),inactive: 80%
16,CCCN(CCC)C(=O)C1CCCN(S(=O)(=O)c2cc(Br)cc3c2N(C(=O)CC)CC3)C1 (stereo not drawn),inactive: 92%
17,O=C(Nc1ccc(-c2nc3cc(NC(=O)c4ccc(Cl)cc4)ccc3o2)cc1)c1ccc(Cl)cc1,inactive: 69%
18,O=C(c1ccc2c(c1)N(Cc1ccc(Cl)cc1)C(=O)c1ccccc1S2(=O)=O)N1CCN(Cc2ccccc2)CC1,inactive: 92%
19,Cc1cc(C)cc(NC(=O)CCc2c(C)nc3c(c2C)c(=O)n(C)c(=O)n3C)c1,inactive: 83%
20,CCc1ccc(-n2nc(CO)c(C(=O)NCc3cccnc3)n2)cc1,inactive: 87%
21,COc1ccc(CCCc2n[nH]c(=S)n2C)cc1C,inactive: 110%
22,Cc1nc2ccc(S(=O)(=O)NC(C(=O)N3CCN(c4cccc(Cl)c4)CC3)C(C)C)cc2s1 (stereo not drawn),inactive: 96%
